About 200 (0.47%) of roughly 43,000 compounds were called active. About 12% were inconclusive and are not listed. The call rests on the fitted dose curve; in most records, active means well fitted cell-killing curve with a large enough effect; inconclusive means small, poorly fitted or top-dose-only effect, or effect the other way; inactive means flat fitted curve, though single readings scatter. Some of the results follow.
On the % scale 0 is the no-effect control and ±100 the full control effect.

This assay is described as follows: Cell viability qHTS assay in S16 Pmp22-F2sN cells. Further: nearly all actives have a fitted effect of over 65% in size. The conditions noted are these: S16 Pmp22-F2sN Schwann cells (luciferase reporters placed in the Pmp22 gene) viability, CellTiter-Glo, 24 h; at 57.5 µM (top of the series). A digest of the protocol:
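Seed 500-1,000 S16 Pmp22-F2sN cells per well in phenol-red-free DMEM with 10% heat-inactivated FBS; pin-add 23 nL compound; incubate 24 h at 37C; add CellTiter-Glo, wait 15 min protected from light; read luminescence.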
For `CCOc1ccc2nc(NC(=O)c3cccn(Cc4ccccc4C)c3=O)sc2c1`, the activity change, negative = cytotoxicity was inactive: -5.8%.

For `O=C(Nc1ccc2c(c1)OCO2)c1cccn(Cc2ccc(F)cc2)c1=O`, the activity change, negative = cytotoxicity is inactive: 10%.

Turning to `CC(C)c1ccc(NC(=O)CN2C(=O)CN=C(c3ccccc3)c3ccccc32)cc1`, the activity change, negative = cytotoxicity is inactive: 0.381%.

Consider `COc1ccc(OCC(=O)N2CCN(CCc3ccccn3)CC2)cc1`, for which the activity change, negative = cytotoxicity is inactive: 13.4%.

For the compound `CCCc1ccc(OCC(=O)Nc2ccc(Cl)cc2C(=O)c2ccccc2)cc1`, the activity change, negative = cytotoxicity was inactive: 11.1%.

For the compound `Cc1cccc(CN2C(=O)CN=C(c3ccccc3)c3cc(Cl)ccc32)c1`, the activity change, negative = cytotoxicity is inactive: -14.5%.

In the case of `CCOC(=O)c1ccc(NC(=O)c2cccn(Cc3ccccc3F)c2=O)cc1`, the activity change, negative = cytotoxicity was inactive: 2.13%.

For `N#Cc1ccccc1NC(=O)c1cccn(Cc2ccccc2)c1=O`, the activity change, negative = cytotoxicity is inactive: -2.07%.

`COc1ccc(Cl)cc1NC(=O)c1sc2nc3c(cc2c1N)N1CCC3CC1`: the activity change, negative = cytotoxicity was inactive: 2.08%.

For `CCC(C(=O)Nc1ccccc1F)N1C(=O)CN=C(c2ccccc2)c2ccccc21` (stereo not given), the activity change, negative = cytotoxicity was inactive: -20%.

Consider `Cn1c(=O)n(C)c2cc(CNCCc3ccccc3F)ccc21`, for which the activity change, negative = cytotoxicity is inactive: 0.569%.

`O=C1CC(c2ccccc2Br)c2c(c3ccccc3oc2=O)O1` (stereo not given): the activity change, negative = cytotoxicity is inactive: -3.31%.

As for `Cc1ccc(-n2c(/C=C/c3ccccc3)nc3ccccc3c2=O)cc1Cl`, the activity change, negative = cytotoxicity was inactive: -16.5%.

Regarding `Cc1cccc(C)c1OCC(=O)Nc1ccc(Cl)cc1C(=O)c1ccccc1`, the activity change, negative = cytotoxicity is inactive: 1.7%.

For `O=C(COc1ccccc1[N+](=O)[O-])N1CCN(CCc2ccncc2)CC1`, the activity change, negative = cytotoxicity was inactive: 3.06%.

With `Cc1ccc(-n2c(/C=C/c3cc(Br)cs3)nc3ccccc3c2=O)cc1C`, the activity change, negative = cytotoxicity was inactive: -1.63%.

As for `COc1ccc(C)cc1NC(=O)c1cccn(Cc2ccccc2Cl)c1=O`, the activity change, negative = cytotoxicity was inactive: 6.24%.

With `Cc1ccc(CNC(=O)CCCn2c(=O)c3sccc3n(CC(=O)Nc3c(C)cccc3C)c2=O)cc1`, the activity change, negative = cytotoxicity is inactive: 4.13%.

On to `Cc1cccc(-n2c(/C=C\c3cccc(Br)c3)nc3ccccc3c2=O)c1`, for which the activity change, negative = cytotoxicity was inactive: -10.8%.

On to `COc1ccc(C2CC(=O)Oc3c2c(=O)oc2ccccc32)c(OC)c1OC` (stereo not given), for which the activity change, negative = cytotoxicity was inactive: 5.17%.

As for `Cc1ccc(Cn2cccc(C(=O)Nc3ccc(C)c(Cl)c3)c2=O)cc1`, the activity change, negative = cytotoxicity was inactive: -3.66%.

Regarding `COc1ccc(NC(=O)CCc2nc(C3=CCN(Cc4cccc(C)c4)CC3)no2)c(OC)c1`, the activity change, negative = cytotoxicity is inactive: -5.17%.

For the compound `CCOc1ccc(CN(CCc2ccc3c(c2)OCO3)Cc2ccc(CC)cc2)cc1`, the activity change, negative = cytotoxicity is inactive: -9.42%.

For the compound `Cc1ccccc1-n1nc(C)c2c1NC(=O)CSC2c1ccccc1C(F)(F)F` (stereo not given), the activity change, negative = cytotoxicity is inactive: -12.6%.

Take `COc1ccc(NC(=O)CN2C(=O)CN=C(c3ccccc3)c3ccccc32)c(OC)c1`: the activity change, negative = cytotoxicity is inactive: 13%.
